Data reported in the RNAGym collection of RNA variant scans (doi:10.1073/pnas.2313332121).
Variants at the background level are over-represented here.

B1: TPR 5TU (parent)
chain: GGAUCUUCUCGAUCUAACAAAAAAGACAAAUCUGCCACAAAGCUUGAGAGCAUCUUCGGAUGCAGAGGCGGCAGCCUUCGGUGGCGCGAUAGCGCCAACGUUCUCAACUAUGACACGCAAAACGCGUGCUCCGUUGAAUGGAGUUUAUCAUG

Variants of: B1
Test: polymerase ribozyme fitness, log enrichment relative to wild type (log ratio); higher = more active; in vitro selection for triplet polymerase activity
Outline: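 In triplicate, a single round of in vitro selection was run on each mutant library, PCR-built and transcribed, covering one subunit of a heterodimeric triplet polymerase ribozyme. Frozen incubation at −7 °C followed annealing with a biotinylated primer, partner subunit and triplets, and extended constructs were then gel-excised, streptavidin-captured and taken through RT-PCR. Fitness is the logarithm of genotype enrichment over wild-type enrichment, from inverse-variance-weighted replicate averages of Illumina-sequenced inputs and outputs. […] only genotypes with ≥10 input reads and ≥1 read per output were kept.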

C14G U53A G81A U130G and C14G U53C C75U G94U C149U cannot be ordered by “polymerase ribozyme fitness (log ratio)” value: ≤ -4.2 for the first, ≤ -4.2 for the second.

First: C14G U53G C95A A119C U145G
Second: C14G U55A G92U
The “polymerase ribozyme fitness (log ratio)” value of the first is lower: ≤ -4.2 for the first, -2.92 for the second.

Compared with C14G U56A, C14G U56A A73G U135C is lower in “polymerase ribozyme fitness (log ratio)” value: -2.57 for the first, -4.12 for the second.

C14G U56A A97G G143C and C14G U56C U139A cannot be ordered by “polymerase ribozyme fitness (log ratio)” value: ≤ -4.2 for the first, ≤ -4.2 for the second.

Compared with C14G U56G G68U G81A G84A A91C U135C, C14G U61A is higher in “polymerase ribozyme fitness (log ratio)” value: ≤ -4.2 for the first, -3.55 for the second.

Going from C14G U61A G81A C85A C99U to C14G U61G, the “polymerase ribozyme fitness (log ratio)” value rises from ≤ -4.2 to -3.62.

Compared with C14G U82A U101G, C14G U82C A91U U101C A142C is lower in “polymerase ribozyme fitness (log ratio)” value: -2.29 for the first, ≤ -4.2 for the second.

C14G U135A U139G G140C and C14U A16G U55G G74U C85G A89G cannot be ordered by “polymerase ribozyme fitness (log ratio)” value: ≤ -4.2 for the first, ≤ -4.2 for the second.

C14U A17C C18G A20G G59U C85U A91U C116U U134A G143U and C14U A17C C57A G59C G83C A107U cannot be ordered by “polymerase ribozyme fitness (log ratio)” value: ≤ -4.2 for the first, ≤ -4.2 for the second.

C14U A17U A24C U31C C32G U44G A47G C93U and C14U A19C U53C C69U C72U G83A C85U cannot be ordered by “polymerase ribozyme fitness (log ratio)” value: ≤ -4.2 for the first, ≤ -4.2 for the second.

C14U A19G A22C G84U C123G and C14U A19G A24G G50U U127C cannot be ordered by “polymerase ribozyme fitness (log ratio)” value: ≤ -4.2 for the first, ≤ -4.2 for the second.

C14U A19G G94A A106G C131G and C14U A19U A24C C93G U101G U144A U151G cannot be ordered by “polymerase ribozyme fitness (log ratio)” value: ≤ -4.2 for the first, ≤ -4.2 for the second.

C14U A19U C27A C36A A47U and C14U A20U C51U C75G C118G cannot be ordered by “polymerase ribozyme fitness (log ratio)” value: ≤ -4.2 for the first, ≤ -4.2 for the second.

C14U A21C G67U U77A C85G C96U G152A and C14U A21C G67U U77A C85G C96U U127G cannot be ordered by “polymerase ribozyme fitness (log ratio)” value: ≤ -4.2 for the first, ≤ -4.2 for the second.

C14U A21G C38G C57A C79U A138C U148C and C14U A21U A22C C54A C72U G92A C118U U146C cannot be ordered by “polymerase ribozyme fitness (log ratio)” value: ≤ -4.2 for the first, ≤ -4.2 for the second.

C14U A21U C36A A37G and C14U A22C C38U C69G G70A U77C A115G G141C cannot be ordered by “polymerase ribozyme fitness (log ratio)” value: ≤ -4.2 for the first, ≤ -4.2 for the second.

First: C14U A22C C132U U151G
Second: C14U A22U A41U A120C
The “polymerase ribozyme fitness (log ratio)” value of the first is lower: ≤ -4.2 for the first, -3.1 for the second.

C14U A22U A73G A137U and C14U A22U C79U G88A C96A C125A G141U cannot be ordered by “polymerase ribozyme fitness (log ratio)” value: ≤ -4.2 for the first, ≤ -4.2 for the second.

C14U A22U G42U G94U G141C and C14U A23G A52G G92U G143A A147G C149U cannot be ordered by “polymerase ribozyme fitness (log ratio)” value: ≤ -4.2 for the first, ≤ -4.2 for the second.

C14U A23G C69G G80U C103G and C14U A24C C93U cannot be ordered by “polymerase ribozyme fitness (log ratio)” value: ≤ -4.2 for the first, ≤ -4.2 for the second.

C14U A24U A26U C35U C85U and C14U A24U C38U A49C U55G U78G C108U U148A cannot be ordered by “polymerase ribozyme fitness (log ratio)” value: ≤ -4.2 for the first, ≤ -4.2 for the second.

C14U A24U G25U G34C C35A G143A U145G and C14U A24U U55A G70C G94A C116G cannot be ordered by “polymerase ribozyme fitness (log ratio)” value: ≤ -4.2 for the first, ≤ -4.2 for the second.

C14U A28C A30G U53A C85G G136A and C14U A28C A30U A73G G88A C129A cannot be ordered by “polymerase ribozyme fitness (log ratio)” value: ≤ -4.2 for the first, ≤ -4.2 for the second.

C14U A28G C32U G65A A73C G86C and C14U A28G U31A A39U U44G C87G C95G U139A C149A cannot be ordered by “polymerase ribozyme fitness (log ratio)” value: ≤ -4.2 for the first, ≤ -4.2 for the second.

C14U A28U A110G and C14U A28U C54G G59A U61A G80C G133C cannot be ordered by “polymerase ribozyme fitness (log ratio)” value: ≤ -4.2 for the first, ≤ -4.2 for the second.

C14U A28U C57U G74A and C14U A29C A47U A52G C72G A113C A115U cannot be ordered by “polymerase ribozyme fitness (log ratio)” value: ≤ -4.2 for the first, ≤ -4.2 for the second.

C14U A29U C57A A73G G88C A106G and C14U A29U U53G G92A U134G cannot be ordered by “polymerase ribozyme fitness (log ratio)” value: ≤ -4.2 for the first, ≤ -4.2 for the second.

C14U A30C A47G U56A U90C C93A C105A C149G and C14U A30C C32U C87U U151G cannot be ordered by “polymerase ribozyme fitness (log ratio)” value: ≤ -4.2 for the first, ≤ -4.2 for the second.

C14U A30G A64G U78A G92C U101C G126A and C14U A30U C38G A49G cannot be ordered by “polymerase ribozyme fitness (log ratio)” value: ≤ -4.2 for the first, ≤ -4.2 for the second.

C14U A30U C87A and C14U A30U G133C cannot be ordered by “polymerase ribozyme fitness (log ratio)” value: ≤ -4.2 for the first, ≤ -4.2 for the second.

C14U A30U U53C C54U U56C G83C C99U A110G and C14U A39U C87A cannot be ordered by “polymerase ribozyme fitness (log ratio)” value: ≤ -4.2 for the first, ≤ -4.2 for the second.

C14U A41C A49G G50A C75G C96A C118A G141U and C14U A41C G50U A52C G84A U90G A91C C116U G140A cannot be ordered by “polymerase ribozyme fitness (log ratio)” value: ≤ -4.2 for the first, ≤ -4.2 for the second.

C14U A41C G84U G94U and C14U A41U A60C A66U G80A C85U C103U cannot be ordered by “polymerase ribozyme fitness (log ratio)” value: ≤ -4.2 for the first, ≤ -4.2 for the second.

C14U A41U U56A C93A C123A and C14U A49U C87A C123A A150U cannot be ordered by “polymerase ribozyme fitness (log ratio)” value: ≤ -4.2 for the first, ≤ -4.2 for the second.

C14U A49U U56A U144G U148G and C14U A52C U53A cannot be ordered by “polymerase ribozyme fitness (log ratio)” value: ≤ -4.2 for the first, ≤ -4.2 for the second.

C14U A52G A64U G74A C131U A142U G152C and C14U A60U C96G cannot be ordered by “polymerase ribozyme fitness (log ratio)” value: ≤ -4.2 for the first, ≤ -4.2 for the second.

Going from C14U A64G to C14U A66C U78G C95G C108U, the “polymerase ribozyme fitness (log ratio)” value falls from -4.17 to ≤ -4.2.

C14U A91C G117C U146G and C14U C18G C54G C57U C79A C85A G94A cannot be ordered by “polymerase ribozyme fitness (log ratio)” value: ≤ -4.2 for the first, ≤ -4.2 for the second.

C14U C32A A37C U44A G62C C75U A106G U109A and C14U C32G C69A cannot be ordered by “polymerase ribozyme fitness (log ratio)” value: ≤ -4.2 for the first, ≤ -4.2 for the second.

C14U C35A A60C C116G G136C and C14U C35A C69G C85A C99G A122U C125A U146A U148A cannot be ordered by “polymerase ribozyme fitness (log ratio)” value: ≤ -4.2 for the first, ≤ -4.2 for the second.

Going from C14U C35A C79U G92C C103A to C14U C35G C75U C76G C95U, the “polymerase ribozyme fitness (log ratio)” value rises from ≤ -4.2 to -3.81.

C14U C35G G74U G86U C103A C105G G143A and C14U C35U C38U C96A C123A U134G cannot be ordered by “polymerase ribozyme fitness (log ratio)” value: ≤ -4.2 for the first, ≤ -4.2 for the second.
